From PubChem BioAssay AID588579 (National Center for Advancing Translational Sciences (NCATS), 2011)
In all, about 400,000 compounds went through this assay and about 2,200 (0.55%) were called active. Inconclusive means that the source gave no clear call. Such entries were picked first, then a sample of the others. Calls follow the shape of the dose curve; as a rule, active = well fitted inhibition curve with a large enough effect; inconclusive = small, poorly fitted or top-dose-only effect, or another doubt; inactive = no such curve, though single readings can be large or run the other way. Potencies beside an inconclusive call are fits to weak or partial responses and may not hold up.
Potency is read from the fitted curve at half-maximal effect; tags tell the direction and shape of the fitted curve.

The molecules below were run against DNA polymerase kappa (Homo sapiens) (UniProt Q9UBT6) (assay: qHTS for Inhibitors of Polymerase Kappa). Details: purified Pol kappa, fluorescent DNA synthesis assay, 10 min; series mostly up to 107 µM.
UniProt Q9UBT6, sequence (Q9UBT6 whole entry, looked up): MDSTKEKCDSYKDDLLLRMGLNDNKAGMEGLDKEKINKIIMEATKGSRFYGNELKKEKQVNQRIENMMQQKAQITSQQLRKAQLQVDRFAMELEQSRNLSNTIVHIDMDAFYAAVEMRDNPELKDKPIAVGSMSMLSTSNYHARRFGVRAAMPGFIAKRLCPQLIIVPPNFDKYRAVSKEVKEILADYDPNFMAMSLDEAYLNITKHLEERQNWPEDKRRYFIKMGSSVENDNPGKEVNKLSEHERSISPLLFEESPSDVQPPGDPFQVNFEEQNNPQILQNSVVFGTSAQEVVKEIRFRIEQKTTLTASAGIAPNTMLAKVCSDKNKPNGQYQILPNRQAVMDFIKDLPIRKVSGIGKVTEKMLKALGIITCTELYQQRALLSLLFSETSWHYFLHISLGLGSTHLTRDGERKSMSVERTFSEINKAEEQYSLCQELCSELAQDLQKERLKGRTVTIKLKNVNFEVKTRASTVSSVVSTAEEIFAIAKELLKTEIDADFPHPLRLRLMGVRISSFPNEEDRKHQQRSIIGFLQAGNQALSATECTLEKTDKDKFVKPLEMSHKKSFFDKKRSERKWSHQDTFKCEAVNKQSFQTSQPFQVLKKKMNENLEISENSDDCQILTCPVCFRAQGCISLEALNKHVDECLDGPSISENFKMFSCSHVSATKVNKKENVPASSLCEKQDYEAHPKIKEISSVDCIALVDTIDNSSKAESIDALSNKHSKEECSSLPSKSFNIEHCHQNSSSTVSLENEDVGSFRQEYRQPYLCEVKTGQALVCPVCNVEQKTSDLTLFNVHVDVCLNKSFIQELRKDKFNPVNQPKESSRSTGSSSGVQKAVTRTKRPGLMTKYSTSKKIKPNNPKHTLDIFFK
Outline: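 Activity was followed as the change in fluorescence between reads at 0 and 10 min after starting the reaction with 50 nM substrate. Beforehand, 10 nM polymerase had been preincubated with compound for 15 min at room temperature.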
`O=C(O)CN1C(=O)/C(=C\c2cc(Br)ccc2OCc2ccccc2Cl)SC1=S` was tested, and the Potency was “inactive”. In the case of `Cc1cccc(C)c1OCCCn1c(CCNC(=O)C2CCCCC2)nc2ccccc21`, the Potency was “inactive”. With `CCCc1nc2sc3ccccc3c(=O)c2c(=O)n1Cc1ccco1` the Potency was inconclusive: 89.1 µM [inhibitor, single point]. For `COc1ccc(C(=O)CCC(=O)Nc2cc(Cl)c(O)c(Cl)c2)cc1`, the Potency was inconclusive: 89.1 µM [inhibitor, single point]. In the case of `O=C1C2CCCN2C(=O)N1CCCCN1CCN(c2cccc(Cl)c2)CC1` (stereo not drawn), the Potency was inconclusive: 89.1 µM [inhibitor, partial curve, poor fit]. `Cc1nc2ccccn2c1C(=O)N/N=C/c1ccc([N+](=O)[O-])o1` was tested, and the Potency was active: 50.1 µM. For `COC(=O)CCCC1=CC2=CC(=O)C(C)(OC(=O)C3CCCC3)C(=O)C2=CO1` (stereo not drawn), the Potency was inconclusive: 56.2 µM [inhibitor, partial curve, poor fit]. With `COc1ccc(N(CC(=O)Nc2cc(OC)cc(OC)c2)S(=O)(=O)c2c(C)n[nH]c2C)cc1` the Potency was inconclusive: 89.1 µM [inhibitor, partial curve, poor fit]. For `O=C(O)Cc1cccc(=O)c(O)c1C(=O)O`, the Potency was inconclusive: 50.1 µM [inhibitor, partial curve, poor fit]. For `COCCCNC(=O)c1c(NC(=O)Cc2coc3c(C)c(C)ccc23)sc2c1CCCC2`, the Potency was “inactive”. For `CC(C)c1cc(CN2CCN(Cc3ccc(F)c(F)c3)C(CCO)C2)[nH]n1` (stereo not drawn), the Potency was inconclusive: 89.1 µM [inhibitor, single point]. With `COc1cc2nc(N3CCCN(C)CC3)nc(NC3CCCCC3)c2cc1OC` the Potency was “inactive”. In the case of `O=C(Nc1ccc(C(=O)O)cc1)/C(=C\c1ccco1)NC(=O)c1ccc(Br)o1`, the Potency was active: 79.4 µM. In the case of `O=C(CCN1C(=O)/C(=C\C=C\c2ccccc2)SC1=S)Nc1ccccc1C(=O)O`, the Potency was inconclusive: 89.1 µM [inhibitor, single point]. `C=CC[C@@H]1/C=C(\C)C[C@H](C)C[C@H](OC)[C@H]2O[C@@](O)(C(=O)C(=O)N3CCCC[C@H]3C(=O)O[C@H](/C(C)=C/[C@@H]3CC[C@@H](O)[C@H](OC)C3)[C@H](C)[C@@H](O)CC1=O)[C@H](C)C[C@@H]2OC` was tested, and the Potency was inconclusive: 15 µM [inhibitor, partial curve, poor fit]. In the case of `CCOC(=O)CCP(=O)(O)C(C)(O)c1ccccc1` (stereo not drawn), the Potency was “inactive”. In the case of `CC1=C(c2ccc(Cl)cc2)S(=O)(=O)NC1=NCCCN1CCN(c2cc(C)ccc2C)CC1`, the Potency was “inactive”. For `O=C(CN(C(=O)C1CSC(=O)C1)c1cccc(F)c1)NCc1ccc2c(c1)OCO2` (stereo not drawn), the Potency was “inactive”. In the case of `NC(=O)c1ccc(Oc2ccc3ccc(=O)oc3c2)c([N+](=O)[O-])c1`, the Potency was inconclusive: 89.1 µM [inhibitor, single point]. With `C=CCn1c(C)cc(C(=O)Cn2ncc(Cl)c(Cl)c2=O)c1C` the Potency was inconclusive: 50.1 µM [inhibitor, partial curve, poor fit]. With `Cc1ccc2c(c1)COc1c3ccc(C(=O)O)cc3nn1-2` the Potency was inconclusive: 79.4 µM [inhibitor, single point]. With `Cc1ccc(CN2C(=O)N/C(=C\c3ccc(-c4ccc(C(=O)O)cc4C)o3)C2=O)cc1` the Potency was active: 79.4 µM. In the case of `COc1ccc(-c2cccc(-c3nc4ccc(Cl)cn4c3NC3CCCCC3)c2)cc1`, the Potency was inconclusive: 89.1 µM [inhibitor, single point]. In the case of `C[C@H]1C=C2C=C[C@H](C)[C@H](CC[C@@H]3C[C@@H](O)CC(=O)O3)[C@H]2[C@@H](OC(=O)[C@@H](C)CCO)C1`, the Potency was inconclusive: 0.708 µM [inhibitor, partial curve, poor fit]. `CCC1CCCCN1CCCNC(=O)C1CCN(S(=O)(=O)N2CCCCC2)CC1` (stereo not drawn) was tested, and the Potency was “inactive”. In the case of `CCc1cccc(C)c1NC(=O)C1CCN(S(=O)(=O)c2cccc3nonc23)CC1`, the Potency was inconclusive: 89.1 µM [inhibitor, single point]. For `CCCCC(=O)Nc1c(C(=O)N2CCN(c3ccccc3)CC2)oc2ccccc12`, the Potency was “inactive”. With `O=C(N/N=C/c1ccc(-c2ccc(Cl)c(C(=O)O)c2)o1)c1cc2c(ccc3ccccc32)o1` the Potency was active: 31.6 µM. In the case of `Cc1cc(C(=O)N2CC(C)CC(C)C2)n(-c2ccccc2)n1` (stereo not drawn), the Potency was inconclusive: 89.1 µM [inhibitor, single point]. With `O=C(COC(=O)/C=C/c1ccc(C(F)(F)F)cc1)NCC1CCCO1` (stereo not drawn) the Potency was inconclusive: 70.8 µM [inhibitor, single point]. `N#Cc1c(-c2ccc(Cl)cc2Cl)nc2n(c1=O)CCS2` was tested, and the Potency was “inactive”. `CN(Cc1ccccc1)C(=O)c1cc(-c2cccc(Cl)c2)on1` was tested, and the Potency was “inactive”. With `Cc1cccc(N2CC(C(=O)Nc3nnc(SCc4cccnc4)s3)CC2=O)c1` (stereo not drawn) the Potency was inconclusive: 89.1 µM [inhibitor, single point]. `O=C(NCCCc1ccccc1)c1cccc(NC(=O)C2CC2)c1` was tested, and the Potency was “inactive”. With `COc1ccc(-c2ccc(SCC(=O)NCc3ccco3)nn2)cc1OC` the Potency was inconclusive: 100 µM [inhibitor, single point]. `COc1cc(NC(C)CCCNC(C)C)c2ncccc2c1OC` (stereo not drawn) was tested, and the Potency was “inactive”. With `CC(=O)c1cccc(OCC(=O)N(C)CC(=O)NCc2ccco2)c1` the Potency was active: 35.5 µM. `CCCCOc1ncnc2c1[nH]c1ccc(OC)cc12` was tested, and the Potency was inconclusive: 31.6 µM [inhibitor, partial curve, poor fit]. In the case of `NCCCC[C@H](N)C(=O)N[C@@H](CCCN=C(N)N)C(=O)N1CCC[C@H]1C(=O)N1CCC[C@H]1C(=O)NCC(=O)N[C@@H](Cc1ccccc1)C(=O)N[C@@H](CO)C(=O)N1CCC[C@H]1C(=O)N[C@@H](Cc1ccccc1)C(=O)O`, the Potency was “inactive”. With `CCCCNc1c2c3c(cccc3n(C)c1=O)C(=O)c1ccccc1-2` the Potency was “inactive”. `O=C(Cn1c(COc2ccc(Cl)cc2)nc2ccccc21)NCC(F)(F)F` was tested, and the Potency was inconclusive: 5.01 µM [inhibitor, partial curve, poor fit]. For `CN1CCCC1CCOC(C)(c1ccccc1)c1ccc(Cl)cc1` (stereo not drawn), the Potency was inconclusive: 33.6 µM [inhibitor, partial curve, poor fit]. With `Cc1ccccc1N1CCN(Cc2cc3c(cc2[N+](=O)[O-])OCO3)CC1` the Potency was inconclusive: 89.1 µM [inhibitor, single point]. In the case of `CCOC(=O)c1ccccc1NC(=O)c1cc2c(s1)-c1ccccc1SC2`, the Potency was “inactive”. `O=C1/C(=C/c2ccc(O)c(O)c2)Oc2cc(O)ccc21` was tested, and the Potency was active: 28.2 µM. `CC(C)CCNC(=O)c1ccc2nc[nH]c2c1` was tested, and the Potency was “inactive”. In the case of `O=[N+]([O-])c1ccc(-c2ccc(/C=N/c3c(-c4ccco4)nc4ccccn34)o2)cc1`, the Potency was “inactive”. In the case of `Cc1cc(Br)ccc1NC(=O)C1CCN(S(=O)(=O)c2cccc3nsnc23)CC1`, the Potency was inconclusive: 100 µM [inhibitor, single point]. `COCc1cc(C)n(CC(=O)N/N=C/c2ccc(-c3ccc(Cl)c(C(=O)O)c3)o2)c(=O)c1C#N` was tested, and the Potency was inconclusive: 100 µM [inhibitor, single point]. For `CNc1c2cccc(C)c2nc2c(C(=O)NCCN(C)C)cccc12`, the Potency was active: 8.91 µM. For `Cc1[nH]c(=O)c(C#N)c2c1CCCC2`, the Potency was “inactive”. For `COC(=O)c1cc(O)cc(OC)c1C(=O)c1c(O)cc(C)cc1O`, the Potency was inconclusive: 79.4 µM [inhibitor, single point]. With `O=C(NCc1cccs1)c1ccc(Cn2c(SCc3cccc(F)c3)nc3cccnc32)cc1` the Potency was “inactive”. In the case of `Nc1cc(C(=O)OCC(=O)c2ccc(CC(=O)N3CCOCC3)s2)ccc1Cl`, the Potency was inconclusive: 56.2 µM [inhibitor, partial curve, poor fit]. For `Cc1cccc(Cn2c(=O)n(CC3CCC(C(=O)N4CCOCC4)CC3)c(=O)c3sccc32)c1` (stereo not drawn), the Potency was “inactive”. In the case of `Cc1ccc(S(=O)(=O)Cc2ccc(C(=O)N3CCc4ccccc4C3)o2)cc1`, the Potency was active: 56.2 µM. In the case of `COc1ccc(CCC(=O)NCc2ccco2)cc1`, the Potency was inconclusive: 79.4 µM [inhibitor, partial curve]. For `CCOc1[nH]c(/N=C/c2ccco2)c(C#N)c1C#N`, the Potency was inconclusive: 89.1 µM [inhibitor, single point]. With `CCCCCCCCCCCCCCOc1ccc(C(=O)O)o1` the Potency was active: 11.9 µM. `CCCSc1nnc2c(n1)OC(c1sccc1C)Nc1ccccc1-2` (stereo not drawn) was tested, and the Potency was inconclusive: 79.4 µM [inhibitor, partial curve]. In the case of `C#CCOCCOCCOCCNc1nc(N2CCN(C(=O)Cn3cc(CCCN=C(N)N)nn3)CC2)nc(N2CCN(C(=O)[C@H](C)n3cc(CCCN=C(N)N)nn3)CC2)n1`, the Potency was inconclusive: 56.2 µM [inhibitor, partial curve, poor fit]. With `COc1cc(-c2cc(=O)c3c(C)cc(O)cc3o2)cc(OC)c1OC` the Potency was “inactive”. With `O=c1c(-c2cccs2)nc2cnc(N3CCNCC3)nc2n1Cc1cccs1` the Potency was active: 31.6 µM. `Cc1ccc2nc3sc(C(=O)NCc4ccco4)c(N)c3cc2c1` was tested, and the Potency was “inactive”. With `COc1cc2c(cc1CC=C(C)C)C(=O)C[C@@H](c1ccc(O)cc1)O2` the Potency was inconclusive: 16.8 µM [inhibitor, partial curve, poor fit]. With `Cc1c(C)c2ccc(OCC(=O)Nc3ccc(S(N)(=O)=O)cc3)c(C)c2oc1=O` the Potency was inconclusive: 100 µM [inhibitor, single point]. In the case of `Cc1c(C)n(C(=O)CSc2nc3ccccc3[nH]2)c2ccccc12`, the Potency was inconclusive: 89.1 µM [inhibitor, single point]. For `COc1ccc(OC)c(NC(=O)CSc2ccc(-c3ccco3)nn2)c1`, the Potency was inconclusive: 100 µM [inhibitor, single point].
